# Measurements reported in the supplement of paper PMC8728848.
# The list shows a part of the results.
# How the values were obtained:
# Assay in all cases: glycan array binding signal (z-score within array); higher = stronger binding
# Conditions in all cases: glycan notation: IUPAC condensed, linker removed
# [1] = biological target: Gal(b1-3)[Neu5Ac(b2-6)]GalNAc
# In short: (§1)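 Negative Z-scores can be read as non-binding. The Z-score is calculated within each array and then averaged across arrays of one protein sequence at different concentrations or buffers and across linkers. Arrays, 3228 in all, were curated from the Consortium for Functional Glycomics database and kept only where the protein sequence was available.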
# [2] = biological target: Gal(b1-4)Gal
# In short: as §1
# [3] = biological target: Gal(b1-4)GalNAc(a1-3)[Fuc(a1-2)]Gal(b1-4)GlcNAc
# In short: as §1
# [4] = biological target: Gal(b1-4)GalNAc(b1-3)[Fuc(a1-2)]Gal(b1-4)GlcNAc
# In short: as §1
# [5] = biological target: Gal(b1-4)Glc
# In short: as §1
# [6] = biological target: Gal(b1-4)Glc6S
# In short: as §1
# [7] = biological target: Gal(b1-4)GlcNAc
# In short: as §1
# [8] = biological target: Gal(b1-4)GlcNAc(a1-6)Gal(b1-4)GlcNAc
# In short: as §1
# [9] = biological target: Gal(b1-4)GlcNAc(b1-2)Man
# In short: as §1
# [10] = biological target: Gal(b1-4)GlcNAc(b1-2)Man(a1-3)Man(b1-4)GlcNAc(b1-4)GlcNAc
# In short: as §1
# [11] = biological target: Gal(b1-4)GlcNAc(b1-2)Man(a1-3)[Gal(b1-4)GlcNAc(b1-2)Man(a1-6)]Man(b1-4)GlcNAc(b1-4)GlcNAc
# In short: as §1
# [12] = biological target: Gal(b1-4)GlcNAc(b1-2)Man(a1-3)[Gal(b1-4)GlcNAc(b1-2)Man(a1-6)]Man(b1-4)GlcNAc(b1-4)[Fuc(a1-6)]GlcNAc
# In short: as §1
# [13] = biological target: Gal(b1-4)GlcNAc(b1-2)Man(a1-3)[Gal(b1-4)GlcNAc(b1-2)Man(a1-6)][Gal(b1-4)GlcNAc(b1-4)]Man(b1-4)GlcNAc(b1-4)[Fuc(a1-6)]GlcNAc
# In short: as §1
# [14] = biological target: Gal(b1-4)GlcNAc(b1-2)Man(a1-3)[Gal(b1-4)GlcNAc(b1-2)Man(a1-6)][GlcNAc(b1-4)]Man(b1-4)GlcNAc(b1-4)[Fuc(a1-6)]GlcNAc
# In short: as §1
# [15] = biological target: Gal(b1-4)GlcNAc(b1-2)Man(a1-3)[Gal(b1-4)GlcNAc(b1-2)][GlcNAc(b1-4)]Man(b1-4)GlcNAc(b1-4)GlcNAc
# In short: as §1
# [16] = biological target: Gal(b1-4)GlcNAc(b1-2)Man(a1-3)[GlcNAc(b1-2)Man(a1-6)]Man(b1-4)GlcNAc(b1-4)GlcNAc
# In short: as §1
# [17] = biological target: Gal(b1-4)GlcNAc(b1-2)Man(a1-3)[GlcNAc(b1-4)][Gal(b1-4)GlcNAc(b1-2)Man(a1-6)]Man(b1-4)GlcNAc(b1-4)GlcNAc
# In short: as §1
# [18] = biological target: Gal(b1-4)GlcNAc(b1-2)Man(a1-3)[Man(a1-6)]Man(b1-4)GlcNAc(b1-4)GlcNAc
# In short: as §1
# [19] = biological target: Gal(b1-4)GlcNAc(b1-2)Man(a1-6)Man(b1-4)GlcNAc(b1-4)GlcNAc
# In short: as §1
# [20] = biological target: Gal(b1-4)GlcNAc(b1-2)Man(a1-6)[GlcNAc(b1-2)Man(a1-3)]Man(b1-4)GlcNAc(b1-4)GlcNAc
# In short: as §1
# [21] = biological target: Gal(b1-4)GlcNAc(b1-2)Man(a1-6)[GlcNAc(b1-2)Man(a1-3)]Man(b1-4)GlcNAc(b1-4)[Fuc(a1-6)]GlcNAc
# In short: as §1
# [22] = biological target: Gal(b1-4)GlcNAc(b1-2)Man(a1-6)[Man(a1-3)]Man(b1-4)GlcNAc(b1-4)GlcNAc
# In short: as §1
# [23] = biological target: Gal(b1-4)GlcNAc(b1-2)Man(a1-6)[Man(a1-3)]Man(b1-4)GlcNAc(b1-4)[Fuc(a1-6)]GlcNAc
# In short: as §1
# [24] = biological target: Gal(b1-4)GlcNAc(b1-2)[Gal(b1-4)GlcNAc(b1-4)]Man(a1-3)[Fuc(a1-3)[Gal(b1-4)]GlcNAc(b1-2)Man(a1-6)]Man(b1-4)GlcNAc(b1-4)GlcNAc
# In short: as §1
# [25] = biological target: Gal(b1-4)GlcNAc(b1-2)[Gal(b1-4)GlcNAc(b1-4)]Man(a1-3)[Gal(b1-4)GlcNAc(b1-2)Man(a1-6)]Man(b1-4)GlcNAc(b1-4)GlcNAc
# In short: as §1
# [26] = biological target: Gal(b1-4)GlcNAc(b1-2)[Gal(b1-4)GlcNAc(b1-4)]Man(a1-3)[Gal(b1-4)GlcNAc(b1-2)[Gal(b1-4)GlcNAc(b1-6)]Man(a1-6)]Man(b1-4)GlcNAc(b1-4)GlcNAc
# In short: as §1
# [27] = biological target: Gal(b1-4)GlcNAc(b1-2)[Gal(b1-4)GlcNAc(b1-4)]Man(a1-3)[GlcNAc(b1-4)][Gal(b1-4)GlcNAc(b1-2)Man(a1-6)]Man(b1-4)GlcNAc(b1-4)GlcNAc
# In short: as §1
# [28] = biological target: Gal(b1-4)GlcNAc(b1-2)[Gal(b1-4)GlcNAc(b1-4)]Man(a1-3)[GlcNAc(b1-4)][Gal(b1-4)GlcNAc(b1-2)[Gal(b1-4)GlcNAc(b1-6)]Man(a1-6)]Man(b1-4)GlcNAc(b1-4)GlcNAc
# In short: as §1
# [29] = biological target: Gal(b1-4)GlcNAc(b1-2)[Gal(b1-4)GlcNAc(b1-6)]Man(a1-6)[Gal(b1-4)GlcNAc(b1-2)Man(a1-3)]Man(b1-4)GlcNAc(b1-4)GlcNAc
# In short: as §1
# [30] = biological target: Gal(b1-4)GlcNAc(b1-2)[Gal(b1-4)GlcNAc(b1-6)]Man(a1-6)[Gal(b1-4)GlcNAc(b1-2)Man(a1-3)]Man(b1-4)GlcNAc(b1-4)[Fuc(a1-6)]GlcNAc
# In short: as §1
# [31] = biological target: Gal(b1-4)GlcNAc(b1-2)[Gal(b1-4)GlcNAc(b1-6)]Man(a1-6)[GlcNAc(b1-4)][Gal(b1-4)GlcNAc(b1-2)Man(a1-3)]Man(b1-4)GlcNAc(b1-4)GlcNAc
# In short: as §1
# [32] = biological target: Gal(b1-4)GlcNAc(b1-2)[Gal(b1-4)GlcNAc(b1-6)]Man(a1-6)[GlcNAc(b1-4)][Gal(b1-4)GlcNAc(b1-2)[Gal(b1-4)GlcNAc(b1-4)]Man(a1-3)]Man(b1-4)GlcNAc(b1-4)[Fuc(a1-6)]GlcNAc
# In short: as §1
# [33] = biological target: Gal(b1-4)GlcNAc(b1-3)Fuc
# In short: as §1
# [34] = biological target: Gal(b1-4)GlcNAc(b1-3)Gal(b1-3)GalNAc
# In short: as §1
# [35] = biological target: Gal(b1-4)GlcNAc(b1-3)Gal(b1-3)GlcNAc
# In short: as §1
# [36] = biological target: Gal(b1-4)GlcNAc(b1-3)Gal(b1-4)Glc
# In short: as §1
# [37] = biological target: Gal(b1-4)GlcNAc(b1-3)Gal(b1-4)GlcNAc
# In short: as §1
# [38] = biological target: Gal(b1-4)GlcNAc(b1-3)Gal(b1-4)GlcNAc(b1-2)Man(a1-3)[Gal(b1-4)GlcNAc(b1-3)Gal(b1-4)GlcNAc(b1-2)Man(a1-6)]Man(b1-4)GlcNAc(b1-4)GlcNAc
# In short: as §1
binder,measurement,setting,value
"PNA (Arachis hypogaea), P02872 (protein) MKPFCVFLTFFLLLAASSKKVDSAETVSFNFNSFSEGNPAINFQGDVTVLSNGNIQLTNLNKVNSVGRVLYAMPVRIWSSATGNVASFLTSFSFEMKDIKDYDPADGIIFFIAPEDTQIPAGSIGGGTLGVSDTKGAGHFVGVEFDTYSNSEYNDPPTDHVGIDVNSVDSVKTVPWNSVSGAVVKVTVIYDSSTKTLSVAVTNDNGDITTIAQVVDLKAKLPERVKFGFSASGSLGGRQIHLIRSWSFTSTLITTTRRSIDNNEKKIMNMASA",glycan array binding signal (z-score),[1],1.61
same,glycan array binding signal (z-score),[2],-0.213
same,glycan array binding signal (z-score),[3],-0.054
same,glycan array binding signal (z-score),[4],-0.104
same,glycan array binding signal (z-score),[5],-0.074
same,glycan array binding signal (z-score),[6],-0.154
same,glycan array binding signal (z-score),[7],-0.17
same,glycan array binding signal (z-score),[8],-0.152
same,glycan array binding signal (z-score),[9],-0.245
same,glycan array binding signal (z-score),[10],-0.166
same,glycan array binding signal (z-score),[11],-0.134
same,glycan array binding signal (z-score),[12],-0.153
same,glycan array binding signal (z-score),[13],-0.122
same,glycan array binding signal (z-score),[14],-0.205
same,glycan array binding signal (z-score),[15],-0.166
same,glycan array binding signal (z-score),[16],-0.204
same,glycan array binding signal (z-score),[17],-0.309
same,glycan array binding signal (z-score),[18],-0.176
same,glycan array binding signal (z-score),[19],-0.171
same,glycan array binding signal (z-score),[20],-0.211
same,glycan array binding signal (z-score),[21],-0.055
same,glycan array binding signal (z-score),[22],0.079
same,glycan array binding signal (z-score),[23],-0.195
same,glycan array binding signal (z-score),[24],-0.114
same,glycan array binding signal (z-score),[25],-0.118
same,glycan array binding signal (z-score),[26],0.12
same,glycan array binding signal (z-score),[27],-0.173
same,glycan array binding signal (z-score),[28],-0.258
same,glycan array binding signal (z-score),[29],-0.36
same,glycan array binding signal (z-score),[30],-0.186
same,glycan array binding signal (z-score),[31],-0.295
same,glycan array binding signal (z-score),[32],-0.168
same,glycan array binding signal (z-score),[33],-0.195
same,glycan array binding signal (z-score),[34],-0.167
same,glycan array binding signal (z-score),[35],-0.117
same,glycan array binding signal (z-score),[36],-0.198
same,glycan array binding signal (z-score),[37],-0.181
same,glycan array binding signal (z-score),[38],0.469
